# Test results published in PubChem BioAssay AID686978 (National Center for Advancing Translational Sciences (NCATS), 2013).
# “And” between values parts separate entries of the source, which are not always exact repeats. Identical values can stand only once. The campaign covered roughly 420,000 compounds. About 64,000 (15%) were called active. This list was built around the results that the source calls inconclusive (neither active nor inactive); the mix of calls is not that of the screen. Calls come from the whole dose curve; as a rule, active = well fitted inhibition curve with a large enough effect; inconclusive = small, poorly fitted or top-dose-only effect; inactive = flat fitted curve, though single readings scatter. Potencies of inconclusive entries are doubtful fits and often do not repeat.
# Test: qHTS for Inhibitors of human tyrosyl-DNA phosphodiesterase 1 (TDP1): qHTS in cells in absence of CPT; note: nearly all actives have a fitted effect of over 55% in size
# Settings: DT40 Tdp1-/- hTDP1 cells, no CPT, ATP luminescence, 48 h; activity change, negative = growth inhibition: at 46.2 µM (top of the series)
# How it was run: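 Chicken DT40 Tdp1-/- cells complemented with human TDP1, screened without camptothecin (DMSO vehicle only), 400 cells/well. Compounds pin-transferred, cells incubated at 37 °C for at least 48 hr. Growth read as ATP-dependent luminescence (CellTiter-Glo, 30 min at RT).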
# % is set by controls: 0 for no effect and ±100 for the full control effect; potency is the fitted concentration of half-maximal effect; tags give direction and shape of the fitted curve.
Structure (SMILES),"activity change, negative = growth inhibition",Potency
CCCCOc1ccc(Cl)cc1CSc1nnc(CC)n1N,inactive: -12.7%,
CN(CCCN1c2ccccc2CCc2ccccc21)CC(=O)c1ccc(Cl)cc1,,"inconclusive: 29.9 µM [inhibitor, single point]"
C=C(C)CSc1nnc([C@@H]2CCCN2C(=O)OC(C)(C)C)o1,inactive: -14.4%,
Cc1ccc(NC(=O)Nc2c(C)n(C)n(-c3ccccc3)c2=O)c(Cl)c1,inactive: 1.52%,
Cc1ccc(S(=O)(=O)N(C)c2ccc(OCC(=O)OCC(=O)N(CC#N)c3ccccc3)cc2)cc1,inactive: -5.05%,
COc1ccc(C(O)c2nc(-c3ccc(N(C)C)cc3)cs2)cc1 (stereo not given),,active: 18.4 µM
CCOc1ccc(NC(=O)C2=C(C)C(=O)OC23CCC(C)CC3)cc1 (stereo not given),,active: 16.4 µM
COc1cc(NC(=O)C(C)Oc2ccccc2)ccc1NC(=O)COc1ccccc1 (stereo not given),,"inconclusive: 25.9 µM [inhibitor, single point]"
CCc1ccc(-c2cc(C)no2)cc1S(=O)(=O)N1CCOc2ccccc21,,"inconclusive: 29.1 µM [inhibitor, single point]"
C=CCN1C(=O)N(c2ccccc2)C(=O)C1CC(=O)Nc1ccc(OC)cc1 (stereo not given),inactive: 7.12%,
CCOc1ccc(S(=O)(=O)N2CCN(C(=S)NCc3ccccc3)CC2)cc1,,"inconclusive: 20.6 µM [inhibitor, single point]"
CNC(=O)c1nc(C)c(C2(C)CC(c3cccc([N+](=O)[O-])c3)=NO2)s1 (stereo not given),inactive: -14.3%,
COc1ccc(CN(Cc2ccc(C(=O)O)cc2)C(=S)Nc2cccc(C)c2)cc1OC,inactive: -5.07%,
CCCS(=O)(=O)N1CCCC(C(=O)Oc2ccc(Cl)cc2)C1 (stereo not given),inactive: -11%,
O=c1c2ccccc2nc(-c2cccs2)n1-c1ccc2ccccc2c1,,"inconclusive: 16.4 µM [inhibitor, partial curve, poor fit]"
CCOC(=O)c1ccc(NC(=O)CSc2nc(-c3ccc(F)cc3)cc(C(F)(F)F)c2C#N)cc1,,"inconclusive: 9.2 µM [inhibitor, partial curve]"
CC(=O)c1c(C)n([O-])c2cc(C)ccc2[n+]1=O,inactive: -15.2%,
COc1ccc(Nc2nnc(SCC(=O)NC3CCCC3)s2)cc1,,"inconclusive: 23.1 µM [inhibitor, single point]"
CCc1cc2cc(OC)ccc2nc1SCC(=O)Nc1cc(OC)c(OC)cc1C(=O)O,,"inconclusive: 32.6 µM [inhibitor, single point]"
CCC1CN(C(=O)NCc2ccc(F)cc2)c2cc(Cl)ccc2O1 (stereo not given),,"inconclusive: 25.9 µM [inhibitor, single point] and inconclusive: 11.6 µM [inhibitor, single point]"
